Reference: PubChem BioAssay AID720542 (National Center for Advancing Translational Sciences (NCATS), 2013)
Hit rate of the full screen: of about 360,000 compounds, about 740 (0.21%) were called active. Inconclusive results, whose numbers are uncertain, are shown with a selection of clear calls. Calls follow the shape of the dose curve; as a rule, active = well fitted inhibition curve with a large enough effect; inconclusive = small, poorly fitted or top-dose-only effect; inactive = no such curve, though single readings can be large or run the other way. No potency is given beside an inconclusive call; the fits are too rough.

System: Plasmodium falciparum AMA1 (3D7) - RON2 peptide interaction
Assay: qHTS for Inhibitors of AMA1-RON; Towards Development of Antimalarial Drug Lead: Primary Screen; also: nearly all actives have a fitted effect of over 45% in size;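 as to activity change, negative = inhibition: 0% = vehicle wells and -100% = peptide control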
Conditions: AlphaScreen AMA1-biotinylated RON2 peptide binding; activity change, negative = inhibition: at 58.2 µM (top of the series) unless noted
Summary of the method: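 AMA1 (3D7) with his tag at 25 nM final met compounds first, then biotinylated RON2 peptide at 25 nM; detection used donor plus acceptor beads, 10 µg/mL apiece, read by AlphaScreen after 30 min at room temperature.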
Potency is read from the fitted curve at half-maximal effect; tags tell the direction and shape of the fitted curve.

SMILES | Potency | activity change, negative = inhibition
COC(=O)c1ccc(/C=N/N2C(C)CCCC2C)cc1 (configuration not stated) | inconclusive [inhibitor, single point] | 
Cc1ccc(C(=O)/C=C/c2ccc3c(c2)OCCO3)c(O)c1 | inconclusive [inhibitor, single point] | 
CCOC(=O)C1=C(O)c2ccccc2C(=O)/C1=C\c1ccc(C)cc1 | inconclusive [inhibitor, single point] | 
CC1CCC(NC(=O)CN2C(=O)c3cccnc3Oc3ccc(Cl)cc32)CC1 (configuration not stated) | inactive | 
COc1ccc(C(C#N)N2N=C(C)CC2c2ccccc2)cc1OC (configuration not stated) | inactive | 
Cc1coc2c1C(=O)C(=O)c1c-2ccc2c1CCCC2(C)C | inconclusive [inhibitor, partial curve] | 
CN1OC[C@@H]2CN(Cc3ccccc3)[C@H](c3cccc(-c4ccccc4)c3)C[C@@H]21 | inconclusive [inhibitor, partial curve] | 
CCCc1cc(C(=O)Nc2ccc(OC)cc2[N+](=O)[O-])cs1 | inconclusive [inhibitor, partial curve] | 
COc1ccc(OC)c(Nc2ccc(Nc3cc(OC)ccc3OC)nn2)c1 | inconclusive [inhibitor, partial curve] | 
Cc1cccc(OCC(=O)N/N=C\c2cc3c(cc2[N+](=O)[O-])OCO3)c1C | inactive | 
C(=N\Nc1nncc2ccccc12)/c1ccccc1 | inactive | 
C(=NN1CCCCCC1)c1cccc2ccccc12 | inconclusive [inhibitor, partial curve, poor fit] | 
Cc1ccc2c(C)nc(N/C(N)=N/S(=O)(=O)c3ccc([N+](=O)[O-])cc3)nc2c1 | inactive | 
O=C(Cc1ccc(Cl)cc1)Nc1ccc(N2CCN(C(=O)c3ccco3)CC2)c(Cl)c1 | inactive | 
C/C(=N/NC(=O)c1ccc(-c2ccccc2)cc1)c1cccc(O)c1 | inactive | 
O=C(O)c1ccc(/C=N/Nc2nnnn2-c2ccccc2)cc1 | inactive | 
O=[N+]([O-])c1cc(C(F)(F)F)ccc1N1CCN(S(=O)(=O)c2ccc3ccccc3c2)CC1 | inactive | 
O=C1CC(=O)N2N=C(c3ccc([N+](=O)[O-])cc3)SC2=N1 | inactive | 
C=CCn1c(=S)[nH]c2ccc(Br)cc2c1=O | inactive | 
Nc1ccc(N=Nc2ccccc2)cc1 | inconclusive [inhibitor, partial curve, poor fit] | 
O=C1N(Cc2cccc(Cl)c2)C[C@@H]2C[C@@H](c3ccccn3)N3CCC[C@@]123 | inactive | 
c1ccc(-c2nccc(-c3ccc(-n4cnc5ccccc54)cc3)n2)nc1 |  | inconclusive: -16.3% [inhibitor]
CC(=O)C(=Nc1ccccc1Cl)NNc1ccc(Cl)cc1 | active: 20 µM | 
CCN(CC)c1ccc(NC(=O)C2=CCN(S(=O)(=O)c3ccc(F)cc3)CC2)c(C)c1 | inconclusive [inhibitor, single point] | 

SMILES | Potency | activity change, negative = inhibition
Nc1cc(=O)[nH]c(SCC(=O)N2CCN(S(=O)(=O)c3ccc4ccccc4c3)CC2)n1 | inactive | 
C[C@@]12CC[C@@H](c3cc4c(cc3C1)OCO4)N2c1ccccc1 | inconclusive [inhibitor, partial curve] | 
CCC(Sc1nc(-c2ccccc2)c(C#N)c(=O)[nH]1)C(=O)Nc1nnc(C)s1 (configuration not stated) | inconclusive [inhibitor, full curve, poor fit] | 
Cc1cccc(-n2c(O)c(C=Nc3ccccc3O)c3ccccc3c2=O)n1 | inconclusive [inhibitor, partial curve] | 
C=CCc1cc(OC)ccc1OCCN(C)Cc1ccccc1 | inconclusive [inhibitor, partial curve] | 
CCOc1ccc(S(N)(=O)=O)cc1-c1nc2c(C(C)(C)C)nn(C)c2c(=O)[nH]1 | inactive | 
CCn1nc([N+](=O)[O-])c(C(C#N)c2nc3cc(C(F)(F)F)ccc3s2)c(Cl)c1=O (configuration not stated) | inconclusive [inhibitor, single point] | 
CC[C@]12c3[nH]c4ccc(OC)cc4c3CCN1C(=O)C(CC(=O)NCCC1=CCCCC1)C[C@@H]2C(=O)N1CCN(C(=O)C2CC2)CC1 (some centres not stated) | inactive | 
CCOC(=O)/C(C#N)=C\c1cn(C)c2ccccc12 | inactive | 
Cc1ccc(CNc2ccc(N3CCOCC3)c(Cl)c2)cc1 | inconclusive [inhibitor, single point] | 
Nc1ccc(N(c2ccccc2)c2ccc(N)cc2)cc1 | inconclusive [inhibitor, full curve] | 
CC1CN(O)C2CCc3nonc3C12O (configuration not stated) | inconclusive [inhibitor, single point] | 
CCC(CC)CN1CCC(CN2C(=S)NC[C@@H]2CC(C)C)CC1 | inactive | 
CCOc1cc(C(=O)O)cc(Cl)c1OCC#N | inconclusive [inhibitor, full curve, poor fit] | 
COc1ccc(N2CCN(C3CCCCC3NS(=O)(=O)c3ccc(Cl)cc3)CC2)cc1 (configuration not stated) | inconclusive [inhibitor, single point] | 
CC(=O)Nc1ccc(CNc2nc(NC(C)C)nc3cc(-c4ccccc4)sc23)cc1 | inconclusive [inhibitor, single point] | 
Cc1cc(NC(=O)CSc2nnc(C3COc4ccccc4O3)n2N)no1 (configuration not stated) | inactive | 
COc1ccc(OCC(=O)Nc2ccc3c(c2)nc(CCn2ccccc2=O)n3C)cc1 | inactive | 
NS(=O)(=O)c1ccc(CCNCC(=O)NCc2ccccc2Cl)cc1 | inconclusive [inhibitor, single point] | 
CCN(CC)c1ccc(NC(=O)CCCOc2cccc(C)c2)cc1 | inconclusive [inhibitor, full curve] | 
CCCc1c(-c2ccccc2F)ncn1CCc1ccccc1OC | inconclusive [inhibitor, single point] | 
COc1ccc(/C=N/NC(=O)Nc2nonc2N)cc1 | inactive | 
COCCNC(=O)c1cc2c(c(-c3cccc(C#CC(C)(C)O)c3)n1)[C@@H](CCO)N(S(=O)C(C)(C)C)C2 (some centres not stated) | inactive | 
CN(C)C(=O)COn1c(SCC(=O)N(C)C)nc2ccccc2c1=O | inconclusive [inhibitor, single point] | 

SMILES | Potency | activity change, negative = inhibition
CCOc1ccc(C(C)=O)cc1COC(=O)C1=COCCO1 | inactive | 
CCSC(=S)Nc1c(C)n(C)n(-c2ccccc2)c1=O | inconclusive [inhibitor, single point] | 
C/C(=N\O)c1ccc2c3ccccc3n(C)c2c1 | inconclusive [inhibitor, partial curve] | 
COc1ccc(NC(=O)CN2CCC(C(=O)c3ccc(C)cc3)CC2)c(OC)c1 | inconclusive [inhibitor, single point] | 
O=C(O)CCNc1ccc(NCCC(=O)O)c2c1C(=O)c1ccccc1C2=O | active: 15.8 µM | 
Cc1cc(C(=O)c2ccc(C(C)(C)C)cc2)c(NC(=O)CCl)s1 | inconclusive [inhibitor, partial curve] | 
COc1cccc(CN2CCN(C(c3ccccc3)c3ccccc3)CC2)c1O | inconclusive [inhibitor, single point] | 
COc1ccc(OC)c(N)c1 | inconclusive [inhibitor, single point] | 
Ic1ccccc1CN[C@@H]1C2CCN(CC2)[C@@H]1C(c1ccccc1)c1ccccc1 | inconclusive [inhibitor, partial curve] | 
N#Cc1nc(COc2ccc(Cl)cc2Cl)oc1N1CCOCC1 | inconclusive [inhibitor, single point] | 
CN1/C(=C\C(=O)c2ccccc2Cl)c2ccccc2CC1(C)C |  | inconclusive: -3.45% [inhibitor]
Cc1ccc(C)c(S(=O)(=O)N/N=C/c2ccc(N(C)C)cc2)c1 | inconclusive [inhibitor, partial curve] | 
CC1(C)Cc2cccc(OCC(=O)N3CCN(c4ccccc4Cl)CC3)c2O1 | inactive | 
OCCN(Cc1ccccc1)Cc1ccc(Cl)cc1Cl | inconclusive [inhibitor, single point] | 
Cc1ccc(SCC(=O)Nc2ccc(F)cc2[N+](=O)[O-])cc1C | inconclusive [inhibitor, full curve, poor fit] | 
Cc1ccc2c(c1)CCCN2C(=O)c1ccc2c(c1)OCO2 | inactive | 
O=C(O)CC(C(=O)O)N1C(=O)/C(=C/C=C/c2ccco2)SC1=S (configuration not stated) | inconclusive [inhibitor, single point] | 
Clc1cccc(N/N=C/c2ccc(N3CCOCC3)s2)c1 | inconclusive [inhibitor, single point] | 
COC(=O)c1ccc(OCCN2CCCCCC2)cc1 | inconclusive [inhibitor, full curve] | 
COc1ccc(CN2CCCN(C)CC2)c(OC)c1C | inconclusive [inhibitor, partial curve] | 
O=C(O)c1cn(-c2ccc(N3CCCC3)c(F)c2)c2c(F)c(F)c(F)cc2c1=O | inconclusive [inhibitor, partial curve] | 
COc1cccc(C=NN(C)c2c([N+](=O)[O-])cc(C(F)(F)F)cc2[N+](=O)[O-])c1O | inconclusive [inhibitor, partial curve] | 
COc1ccc(S(=O)(=O)N2CCN(C/C=C/c3ccccc3)CC2)cc1F | inconclusive [inhibitor, single point] | 
CN(C)CCN(C(=O)c1ccc(S(=O)(=O)N(C)c2ccccc2)cc1)c1nc2cc3c(cc2s1)OCO3 | inactive | 
